About 6,400 (1.6%) of roughly 410,000 compounds were called active. This list was built around the results that the source calls inconclusive (neither active nor inactive); the mix of calls is not that of the screen. Calls follow the shape of the dose curve; as a rule, active = well fitted inhibition curve with a large enough effect; inconclusive = small, poorly fitted or top-dose-only effect; inactive = no such curve, though single readings can be large or run the other way. Potencies of inconclusive entries are left out as doubtful fits.
What follows are compounds tested against Glucagon-like peptide 1 receptor (Homo sapiens) (UniProt P43220) (assay: qHTS of GLP-1 Receptor Inverse Agonists (Inhibition Mode)). Details: HEK293 GLP-1R CRE-luciferase, luminescence, 24 h, GLP-1R form is constitutively active; activity change, negative = inhibition: at 38.3 µM (top of the series) unless noted.
Chain of UniProt P43220 (P43220 whole entry, looked up): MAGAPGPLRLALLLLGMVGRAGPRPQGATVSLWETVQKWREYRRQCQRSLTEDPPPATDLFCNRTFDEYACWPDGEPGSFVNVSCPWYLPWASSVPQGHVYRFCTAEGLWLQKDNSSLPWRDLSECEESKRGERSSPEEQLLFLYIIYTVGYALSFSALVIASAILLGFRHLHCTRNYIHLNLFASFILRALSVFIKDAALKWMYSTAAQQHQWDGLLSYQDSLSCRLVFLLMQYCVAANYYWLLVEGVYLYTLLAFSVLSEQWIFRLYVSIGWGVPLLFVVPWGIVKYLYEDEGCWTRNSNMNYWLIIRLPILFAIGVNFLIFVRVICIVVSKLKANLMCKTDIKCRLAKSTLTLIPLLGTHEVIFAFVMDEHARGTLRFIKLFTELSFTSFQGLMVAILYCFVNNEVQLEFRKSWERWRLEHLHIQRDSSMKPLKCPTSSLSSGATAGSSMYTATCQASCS
Procedure, shortened: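 GLP-1R inverse agonism mode: basal reporter luminescence in engineered HEK293 cells measured after one day of compound exposure at 37 deg C, with a 12 min room-temperature detection step.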
% is scaled to controls: 0 for no effect and ±100 for the full control effect; potency is read from the fitted curve at half-maximal effect; tags tell the direction and shape of the fitted curve.
Also: nearly all actives have a fitted effect of over 55% in size.

**Q.** With `Cc1ccc(C)c(N2CCN(C(=O)CN3CCSc4ccc(S(=O)(=O)N(C)C)cc43)CC2)c1` as the compound, how does the “activity change, negative = inhibition” value read?
**A.** inactive: -27.6%

**Q.** Which Potency does the source give for `CCn1c(C)cc(C(=O)CSc2nnnn2C2CCCC2)c1C` here?
**A.** inconclusive [inhibitor, single point]

**Q.** With `COc1ccc(C/C(C)=N/NC(=O)c2ccc(C)cc2C)cc1` as the compound, how does the “activity change, negative = inhibition” value read?
**A.** inactive: -21.6%

**Q.** `COc1ccc(C2=CC(=O)OC(C)(c3ccccc3)O2)cc1` (stereo not given) was tested. Which Potency did it give?
**A.** inconclusive [inhibitor, single point]

**Q.** Which Potency does the source give for `CCCCCC(=O)Nc1sc(C)c(C)c1C#N` here?
**A.** inconclusive [inhibitor, single point]

**Q.** How did the Potency turn out when `COc1ccc(OC)c(C(=O)Nc2c(O)ccc3ccccc23)c1` was run?
**A.** inconclusive [inhibitor, partial curve]

**Q.** How did the Potency turn out when `C/C(=N\NC(=O)c1ccc(N(C)C)cc1)c1ccc(C)cc1C` was run?
**A.** inconclusive [inhibitor, single point]

**Q.** `CSc1nc(C(=O)N2CCc3c([nH]c4ccccc34)C2c2ccccn2)cs1` (stereo not given) was tested. Which Potency did it give?
**A.** inconclusive [inhibitor, single point]

**Q.** `O=S(=O)(c1ccccc1)N(Cc1ccccc1)c1ccccn1` was tested. Which Potency did it give?
**A.** inconclusive [inhibitor, single point]

**Q.** `Cc1ccc(C)c(CC(=O)N2CCCCC2c2cc(C(=O)Nc3ccc(F)c(Cl)c3)no2)c1` (stereo not given) was tested. Which Potency did it give?
**A.** inconclusive [inhibitor, partial curve, poor fit]

**Q.** With `CCOC(=O)c1cc([N+](=O)[O-])sc1NC(=O)c1ccc(S(=O)(=O)N2CC3(C)CC2CC(C)(C)C3)cc1` (stereo not given) as the compound, how does the Potency read?
**A.** inconclusive [inhibitor, full curve, poor fit]

**Q.** How did the Potency turn out when `Cc1ccc(S(=O)(=O)Cc2ccc(C(=O)N3CCN(c4ccc(F)cc4)CC3)o2)cc1` was run?
**A.** inconclusive [inhibitor, partial curve]

**Q.** How did the “activity change, negative = inhibition” value turn out when `O=C(Oc1ccc(/C=N/NC(=O)c2ccccn2)cc1)c1ccc(Br)cc1` was run?
**A.** inactive: -4.24%

**Q.** With `O=C(CN1CCN(CC(=O)Nc2ccc(-c3ccccc3)cc2)CC1)Nc1ccc(F)cc1` as the compound, how does the Potency read?
**A.** inconclusive [inhibitor, partial curve, poor fit]

**Q.** `CCCN(CC1CC1)C(=O)COC(=O)c1oc2ccc(OCC)cc2c1C` was tested. Which Potency did it give?
**A.** inconclusive [inhibitor, partial curve, poor fit]

**Q.** Which Potency does the source give for `CN(Cc1ccccc1F)Cc1cc(=O)oc2cc(O)c(Cl)cc12` here?
**A.** inconclusive [inhibitor, partial curve, poor fit]

**Q.** For `CC(C)C(=O)NCCc1nc2ccccc2n1CCCOc1ccc(Cl)cc1`, which Potency is on record?
**A.** inconclusive [inhibitor, partial curve, poor fit]

**Q.** Which Potency does the source give for `COc1ccc(S(=O)(=O)N2CCCCC2)cc1NC(=O)C1COc2ccccc2O1` (stereo not given) here?
**A.** inconclusive [inhibitor, partial curve, poor fit]

**Q.** With `C=CCn1cc(/C=C/c2cc[n+](C)cc2)c2ccccc21` as the compound, how does the Potency read?
**A.** inconclusive [inhibitor, full curve, poor fit]

**Q.** Which Potency does the source give for `COc1ccc(C(=O)NCC(=O)N2CC=C(c3ccccc3)CC2)cc1OC` here?
**A.** inconclusive [inhibitor, partial curve, poor fit]

**Q.** `Cc1ccc2ccc(C(Nc3ccccc3)c3ccc(F)cc3)c(O)c2n1` (stereo not given) was tested. Which Potency did it give?
**A.** inconclusive [inhibitor, single point]

**Q.** Which “activity change, negative = inhibition” value does the source give for `O=C(NNc1nc(N2CCOCC2)nc(N2CCOCC2)n1)c1ccccc1` here?
**A.** inactive: 12.8%

**Q.** How did the Potency turn out when `CCN1CCN(c2cc(C)c3cc(NC(=S)N4CCCC(C)C4)ccc3n2)CC1` (stereo not given) was run?
**A.** inconclusive [inhibitor, full curve, poor fit]

**Q.** With `Oc1ccc(F)c2cccnc12` as the compound, how does the Potency read?
**A.** inconclusive [inhibitor, single point]

**Q.** `O=C(NCCc1ccccc1)c1ccccc1Cl` was tested. Which Potency did it give?
**A.** inconclusive [inhibitor, partial curve, poor fit]

**Q.** For `Nc1ccc(N2CCN(c3ccccc3)CC2)c(F)c1`, which Potency is on record?
**A.** inconclusive [inhibitor, partial curve, poor fit]

**Q.** Which Potency does the source give for `CC(C)NCC(O)COc1ccc(Br)cc1` (stereo not given) here?
**A.** inconclusive [inhibitor, partial curve, poor fit]

**Q.** Which Potency does the source give for `Cc1cccnc1C(NC(=O)C1CCN(CCOc2ccc(Cl)cc2Cl)CC1)c1ccc(Cl)cc1` (stereo not given) here?
**A.** inconclusive [inhibitor, partial curve, poor fit]

**Q.** Which Potency does the source give for `Cc1c(C(=O)Nc2ccncc2)sc2nc(-c3ccccc3)cn12` here?
**A.** inconclusive [inhibitor, full curve]

**Q.** Which Potency does the source give for `O=C(NCC1CCOCC1)c1cc(COc2cccc(C(F)(F)F)c2)on1` here?
**A.** inconclusive [inhibitor, partial curve, poor fit]

**Q.** With `S=C(Nc1ccccc1Cl)NC1CCN(Cc2ccccc2)CC1` as the compound, how does the Potency read?
**A.** inconclusive [inhibitor, single point]

**Q.** `COc1cccc(-c2noc(C3CCCN(C(=O)c4ccc(F)cc4)C3)n2)c1` (stereo not given) was tested. Which Potency did it give?
**A.** inconclusive [inhibitor, single point]

**Q.** `O=C(C=P(c1ccccc1)(c1ccccc1)c1ccccc1)c1ccccc1-c1ccccc1C(=O)C=P(c1ccccc1)(c1ccccc1)c1ccccc1` was tested. Which Potency did it give?
**A.** inconclusive [inhibitor, partial curve, poor fit]

**Q.** `CCc1nc2nc(C)cc(Nc3cc(Cl)ccc3C)n2n1` was tested. Which “activity change, negative = inhibition” value did it give?
**A.** inactive: 6.72%

**Q.** How did the “activity change, negative = inhibition” value turn out when `Nn1c(=S)[nH]nc(Cc2ccc(O)cc2)c1=O` was run?
**A.** inactive: 3.87%

**Q.** Which Potency does the source give for `O=C(/C=C/c1ccc([N+](=O)[O-])cc1)NCCOc1ccc(F)cc1` here?
**A.** inconclusive [inhibitor, single point]

**Q.** Which Potency does the source give for `CN(C)c1ccc(NC(=O)Nc2csc3ccccc23)cc1` here?
**A.** inconclusive [inhibitor, single point]

**Q.** With `COc1ccccc1CNC(=O)CN(C)S(=O)(=O)c1ccc(Br)s1` as the compound, how does the Potency read?
**A.** inconclusive [inhibitor, single point]

**Q.** How did the Potency turn out when `COc1ccc(N2CCN(C(=O)Cc3ccc(Br)cc3)CC2)cc1` was run?
**A.** inconclusive [inhibitor, single point]

**Q.** With `CCCCCCCC/C=C\CCCCCCCC(=O)NCCc1ccc(O)c(O)c1` as the compound, how does the Potency read?
**A.** inconclusive [inhibitor, partial curve, poor fit]

**Q.** `O=C(c1cccs1)N1CCN(Cc2ccccc2)CC1` was tested. Which “activity change, negative = inhibition” value did it give?
**A.** inactive: -9.36%

**Q.** Which “activity change, negative = inhibition” value does the source give for `Cc1ccc(NCCC(=O)c2cccc([N+](=O)[O-])c2)cc1` here?
**A.** inactive: 13.8%

**Q.** With `Cc1ccc(CSC2=CS(=O)(=O)c3ccccc3N2)cc1` as the compound, how does the Potency read?
**A.** inconclusive [inhibitor, single point]

**Q.** With `COc1ccc(Br)cc1C(=O)Nc1cccc2ccc(C)nc12` as the compound, how does the “activity change, negative = inhibition” value read?
**A.** inactive: 4.21%

**Q.** With `O=C(NC1CCCCC1)c1n[nH]c2c1CCCCC2` as the compound, how does the Potency read?
**A.** active: 2.51 µM

**Q.** With `COc1cc(-c2nc(S(=O)(=O)c3ccc(Br)cc3)c(N3CCOCC3)o2)cc(OC)c1OC` as the compound, how does the “activity change, negative = inhibition” value read?
**A.** inactive: 3.72%

**Q.** How did the Potency turn out when `CC(=O)c1c(C)[nH]c(C(=O)OCCOc2ccccc2)c1C` was run?
**A.** inconclusive [inhibitor, partial curve, poor fit]

**Q.** For `CC1CCN(S(=O)(=O)c2ccc3ccccc3c2)CC1`, which Potency is on record?
**A.** inconclusive [inhibitor, single point]

**Q.** With `O=C(Nn1c(C2CCCCC2)nc2ccccc2c1=O)c1ccc(Cl)c([N+](=O)[O-])c1` as the compound, how does the Potency read?
**A.** inconclusive [inhibitor, partial curve, poor fit]

**Q.** Which Potency does the source give for `O[C@H]1C[C@H](c2ccccc2)N(Cc2cccs2)C[C@@H]1n1cc(C2CC2)nn1` here?
**A.** inconclusive [inhibitor, single point]

**Q.** `COc1ccc(C(=O)Nc2ccccc2N2CCCCC2)cc1[N+](=O)[O-]` was tested. Which Potency did it give?
**A.** inconclusive [inhibitor, full curve, poor fit]

**Q.** For `O=C(O)Cc1sc(Nc2cccc3ccccc23)nc1-c1ccccc1`, which Potency is on record?
**A.** inconclusive [inhibitor, single point]

**Q.** With `COc1cccc(CC2(CO)CCCN(Cc3ccc(OC)c(C)c3OC)C2)c1` (stereo not given) as the compound, how does the Potency read?
**A.** inconclusive [inhibitor, partial curve, poor fit]

**Q.** `Cc1ccc(N(CC(=O)NCCc2ccccc2C)S(=O)(=O)N(C)C)cc1` was tested. Which Potency did it give?
**A.** inconclusive [inhibitor, single point]

**Q.** For `COc1ccccc1N1CCN(CCS(=O)(=O)c2cc(Cl)ccc2Cl)CC1`, which Potency is on record?
**A.** inconclusive [inhibitor, single point]

**Q.** `COCOc1cc(O)c2c(=O)c(OCOC)c(-c3ccc(OCOC)c(OCOC)c3)oc2c1` was tested. Which Potency did it give?
**A.** inconclusive [inhibitor, single point]

**Q.** Which Potency does the source give for `CCOc1ccc(-c2cn(S(=O)(=O)c3cccc4nsnc34)nc2N)cc1` here?
**A.** inconclusive [inhibitor, single point]

**Q.** Which “activity change, negative = inhibition” value does the source give for `Cc1noc(C)c1CSc1ncnc2sc3c(c12)CCCCC3` here?
**A.** inactive: 7.25%

**Q.** For `COc1ccc(NC2=NC3(CCCCC3)N=C(N)N2)cc1`, which “activity change, negative = inhibition” value is on record?
**A.** inactive: 8.46%

**Q.** With `O=C(Nc1ccc([N+](=O)[O-])cc1)/C(=C/c1cccc([N+](=O)[O-])c1)NC(=O)C1CCCCC1` as the compound, how does the Potency read?
**A.** inconclusive [inhibitor, partial curve, poor fit]

**Q.** `CCC(CC)=NNc1cccc([N+](=O)[O-])c1` was tested. Which Potency did it give?
**A.** inconclusive [inhibitor, partial curve]

**Q.** `Cc1cc(Cl)cc(C)c1OCCn1ccnc1` was tested. Which Potency did it give?
**A.** inconclusive [inhibitor, partial curve, poor fit]

**Q.** For `COc1ccc(-c2nc3ccccc3s2)cc1O`, which Potency is on record?
**A.** inconclusive [inhibitor, partial curve, poor fit]

**Q.** Which “activity change, negative = inhibition” value does the source give for `CCCCCN1C(=O)/C(=C/c2c(N3CCc4ccccc4C3)nc3ccccn3c2=O)SC1=S` here?
**A.** inactive: 13%

**Q.** For `O=C(Nc1ccccc1N1CCOCC1)C1=NN(c2ccccc2)C(=O)CC1`, which “activity change, negative = inhibition” value is on record?
**A.** inactive: 11.1%

Reference: PubChem BioAssay AID624417 (National Center for Advancing Translational Sciences (NCATS), 2012)
